{
  "source": "PubChem BioAssay AID1508624",
  "about": "(National Center for Advancing Translational Sciences (NCATS), 2021)",
  "note": "In all, about 48,000 compounds went through this assay and about 120 (0.25%) were called active. Another 4% or so got no clear call; they are omitted. Calls come from the whole dose curve; as a rule, active = well fitted activation curve with a large enough effect; inconclusive = small, poorly fitted or top-dose-only effect, or another doubt; inactive = no such curve, though single readings can be large or run the other way. The list shows a part of the results.",
  "data": [
    {"assay": "Primary qHTS for Identification of Small Molecule Activators of Huntingtin-Antisense Promoter Activity; note: nearly all actives have a fitted effect of over 55% in size", "conditions": "HEK293 HTT-AS promoter firefly luciferase reporter (activity 0% = vehicle and -100% = no light), 24 h; series mostly up to 57.5 µM; activity change, positive = activation: at the top concentration", "procedure,_shortened": "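HEK293 cells carrying firefly luciferase reporters were seeded at 2,500 per well in Opti-MEM and cultured for 24 h. They were then treated with compounds at up to 57.5 uM final for 24 h at 37 degrees C before Dual-Glo luminescence readout.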", "values": [
      {"smiles": "Cc1ccc(C(c2sc3nc(-c4ccco4)nn3c2O)N2CCC3(CC2)OCCO3)cc1", "note": "(stereo not drawn)", "activity change, positive = activation": "inactive: -2.4%"},
      {"smiles": "Cc1ccc(NC(=O)CSc2nc(-c3ccccc3Cl)nc3cc(=O)[nH]n23)c(C)c1", "activity change, positive = activation": "inactive: -7.48%"},
      {"smiles": "CCc1cccc(Nc2ncnc3onc(-c4ccc(F)cc4)c23)c1", "activity change, positive = activation": "inactive: -33.2%"},
      {"smiles": "COC(=O)c1c(C)nn(-c2ccc(F)cc2)c1-n1cccc1", "activity change, positive = activation": "inactive: -20.5%"},
      {"smiles": "O=C(CSc1nc(-c2ccc(F)cc2)cc(C(F)(F)F)n1)NCCc1ccccc1", "activity change, positive = activation": "inactive: -21.8%"},
      {"smiles": "COc1cccc(N2CCN(S(=O)(=O)c3ccc(-c4ccno4)cc3OC)CC2)c1", "activity change, positive = activation": "inactive: -13.3%"},
      {"smiles": "COc1ccc(OC)c(C2NC(=O)NC(C)=C2C(=O)Nc2ccc(F)cc2)c1", "note": "(stereo not drawn)", "activity change, positive = activation": "inactive: -8.41%"},
      {"smiles": "COc1cccc(N2CCN(C(=O)c3ccc(NC(=O)c4nsc5ccccc45)cc3)CC2)c1", "activity change, positive = activation": "inactive: -70.5%"},
      {"smiles": "CN1CCN(CCOc2cc(OC3CCOCC3)c3c(Nc4c(Cl)ccc5c4OCO5)ncnc3c2)CC1", "activity change, positive = activation": "inactive: 11.9%"},
      {"smiles": "COc1ccc(NC(=O)c2ccco2)cc1NC(=O)COc1ccc(Cl)cc1C", "activity change, positive = activation": "inactive: -32.7%"},
      {"smiles": "O=C(NCC(O)CO)c1c(I)c(C(=O)NCC(O)CO)c(I)c(N(CCO)C(=O)CO)c1I", "note": "(stereo not drawn)", "activity change, positive = activation": "inactive: -14.4%"},
      {"smiles": "Cc1ccc(C(=O)NCc2ccc(F)cc2)cc1NC(=O)c1nsc2ccccc12", "activity change, positive = activation": "inactive: -2.36%"},
      {"smiles": "CCN(CC)CCNC(=O)c1sc2ncccc2c1-n1cccc1", "activity change, positive = activation": "inactive: -6.72%"},
      {"smiles": "CCOCCCn1c(=N)c(C(=O)NCC2CCCO2)cc2c(=O)n3cccc(C)c3nc21", "note": "(stereo not drawn)", "activity change, positive = activation": "inactive: -6.86%"},
      {"smiles": "Nc1ccc(S(=O)(=O)Nc2ccnn2-c2ccccc2)cc1", "activity change, positive = activation": "inactive"},
      {"smiles": "Cc1ccc(C)c(NC(=O)Cn2c(=O)n(Cc3ccccc3)c(=O)c3oc4ccccc4c32)c1", "activity change, positive = activation": "inactive: -8.3%"},
      {"smiles": "Cc1ccc(C)c(N2CCN(Cc3csc(C)c3)CC2)c1", "activity change, positive = activation": "inactive: -23.6%"},
      {"smiles": "COC(=O)C1=C(c2ccccc2)c2ccccc2S(=O)(=O)N1CC(=O)Nc1ccccc1Cl", "activity change, positive = activation": "inactive: -31.2%"},
      {"smiles": "COC(=O)C1CCN(S(=O)(=O)c2cc3c4c(c2)CC(=O)N4CCC3)CC1", "activity change, positive = activation": "inactive: 7.11%"},
      {"smiles": "CCN(C)C(=O)Oc1cccc([C@H](C)N(C)C)c1", "activity change, positive = activation": "inactive"},
      {"smiles": "O=C(c1cccs1)N1CCCc2cc(NS(=O)(=O)c3ccc(F)cc3F)ccc21", "activity change, positive = activation": "inactive: -4.08%"},
      {"smiles": "Cc1ccc(S(=O)(=O)c2cn(Cc3ccccc3Cl)c3ccc(F)cc3c2=O)cc1", "activity change, positive = activation": "inactive: 7.28%"},
      {"smiles": "C[C@@H](N)c1ccc(C(=O)Nc2ccnc3[nH]ccc23)cc1", "activity change, positive = activation": "inactive: 1.05%"},
      {"smiles": "COc1ccc(Br)cc1CNC(=O)c1ccc2c(c1)N(Cc1ccc(C)cc1)CCS2", "activity change, positive = activation": "inactive: -11.6%"},
      {"smiles": "Cc1ccc(CN2C(=O)c3ccccc3Sc3ccc(C(=O)OCc4ccco4)cc32)cc1", "activity change, positive = activation": "inactive: -24.1%"},
      {"smiles": "CC1Cc2cc(S(=O)(=O)N(Cc3ccccc3)C(C)C)ccc2N1C(=O)C1CCC1", "note": "(stereo not drawn)", "activity change, positive = activation": "inactive: -37.2%"},
      {"smiles": "Cc1ccccc1Nc1c(-c2cccs2)nc2cccc(C)n12", "activity change, positive = activation": "inactive: -12.7%"},
      {"smiles": "CCOc1ccc(/C=C/c2nc(C#N)c(NCCc3ccccc3)o2)cc1", "activity change, positive = activation": "inactive: -19.1%"},
      {"smiles": "O=C(CSc1nc2c([nH]c3ccccc32)c(=O)n1-c1ccc(Cl)cc1)NCC1CCCO1", "note": "(stereo not drawn)", "activity change, positive = activation": "inactive: -12.8%"},
      {"smiles": "Cc1cc(C(=O)Nc2c(C)nc3ccccn3c2=O)ccc1[N+](=O)[O-]", "activity change, positive = activation": "inactive: -14.9%"},
      {"smiles": "CCOC(=O)c1c(C)oc2nc(C)nc(NCc3ccccc3OC)c12", "activity change, positive = activation": "inactive: -34.5%"},
      {"smiles": "COc1ccccc1NC(=O)Cn1c(=O)n(CCCCCC(=O)NCc2ccccc2)c(=O)c2sccc21", "activity change, positive = activation": "inactive: 6.92%"},
      {"smiles": "COC(=O)C(c1ccccc1Cl)N1CCc2sccc2C1", "note": "(stereo not drawn)", "activity change, positive = activation": "inactive: -2.26%"},
      {"smiles": "COc1cccc(C(=O)Nc2ccccc2-c2nnc(-c3cccc(OC)c3)o2)c1", "activity change, positive = activation": "inactive: -11.5%"},
      {"smiles": "O=C(Cn1c(=O)oc2cc(S(=O)(=O)NCc3ccccc3)ccc21)NCc1ccc(Cl)cc1", "activity change, positive = activation": "inactive: -26.9%"},
      {"smiles": "CC(=O)Nc1ccc(S(=O)(=O)NC2(C(F)(F)F)NC(=O)N(CCc3ccc(F)cc3)C2=O)cc1", "note": "(stereo not drawn)", "activity change, positive = activation": "inactive: -9.11%"},
      {"smiles": "Cc1ccc(-n2c(SCC(N)=O)nc3c(oc4ccccc43)c2=O)cc1C", "activity change, positive = activation": "inactive: -6.25%"},
      {"smiles": "Cc1ccc(-n2nc3c(=O)n(CCCC(=O)NCc4ccccc4F)nc(C)c3c2C)cc1", "activity change, positive = activation": "inactive: -17.5%"},
      {"smiles": "Cc1csc2nc(COC(=O)CNC(=O)c3ccccc3Cl)cc(=O)n12", "activity change, positive = activation": "inactive: 0.297%"},
      {"smiles": "O=C(CSc1nc2ccncc2[nH]1)Nc1ccccc1C(F)(F)F", "activity change, positive = activation": "inactive: -40.8%"},
      {"smiles": "O=C(Nc1c(C(=O)N2CCN(c3ccccc3F)CC2)oc2ccccc12)c1ccccc1F", "activity change, positive = activation": "inactive: -0.492%"},
      {"smiles": "O=C(CN1CCCN(Cc2ccc(F)cc2)S1(=O)=O)NCc1ccccc1Cl", "activity change, positive = activation": "inactive: -24.8%"},
      {"smiles": "CN1CCN(CCCNC(=O)c2ccc3nc(Cc4ccccc4)oc3c2)CC1", "activity change, positive = activation": "inactive: -10.1%"},
      {"smiles": "CCC12CN3CC(CC)(CN(C1)C3c1cc(Br)ccc1OC)C2=O", "note": "(stereo not drawn)", "activity change, positive = activation": "inactive: -0.0174%"},
      {"smiles": "CCn1cc(C(=O)NCc2ccc(C)cc2)c(=O)c2cc(S(=O)(=O)N3CCc4ccccc4C3)ccc21", "activity change, positive = activation": "inactive: -20.8%"},
      {"smiles": "CNC(=O)c1cnn(-c2nc(N)c3ncn([C@@H]4O[C@H](CO)[C@@H](O)[C@H]4O)c3n2)c1", "activity change, positive = activation": "inactive: -12.6%"},
      {"smiles": "Cc1nc(-c2ccc(S(=O)(=O)N3CCN(c4ccc(F)cc4)CC3)cc2)co1", "activity change, positive = activation": "inactive: -37.9%"},
      {"smiles": "CCc1ccc(N(C)S(=O)(=O)c2ccc3[nH]cc(C(=O)NCC4CCCO4)c(=O)c3c2)cc1", "note": "(stereo not drawn)", "activity change, positive = activation": "inactive: -45.1%"}
    ]}
  ]
}
